B1: TEV protease; numbered along this chain (parent)
chain: MGESLFKGPRDYNPISSSICHLTNESDGHTTSLYGIGFGPFIITNKHLFRRNNGTLVVQSLHGVFKVKDTTTLQQHLVDGRDMIIIRMPKDFPPFPQKLKFREPQREERICLVTTNFQTKSMSSMVSDTSCTFPSGDGIFWKHWIQTKDGQCGSPLVSTRDGFIVGIHSASNFTNTNNYFTSVPKNFMELLTNQEAQQWVSGWRLNADSVLWGGHKVFMVKPEEPFQPVKEATQL

Some of the results follow. The full chains were built here from the parent and the listed change. Inactive controls read about 0.05.
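Note: Bxb1 expression induced with 0.2% (w/v) L-rhamnose at OD600 near 0.5, cultures sampled hourly, flipped fraction per protease–substrate barcode pair counted by paired-end Illumina sequencing.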

The variants in the test derive from B1. The experiment in a line: raw area under fraction-flipped curve 0-4 h after induction (AUC4h, not background-subtracted), DNA-recorder readout of cleavage of the substrate (dimensionless); higher = more cleavage of the substrate by the protease variant. The settings on record: temperature: 34 °C; time window: 0-4 h after rhamnose induction. The procedure:
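In vivo DNA recorder in E. coli TOP10(DE3) ΔrhaA at 34 °C. Each TEVp single-site mutant (parent TEVp 0) is paired with a single-site variant of the 7-mer TEVs (canonical ENLYFQ|S). The substrate sits between flexible linkers in a Bxb1-sfGFP-TEVs-SsrA fusion, so cleavage stabilises Bxb1 and speeds flipping of a recombination array, read by NGS. The value is the raw area under the fraction-flipped curve over 0-4 h after rhamnose induction (AUC4h), with ≥20 reads per time point. It is not background-subtracted; inactive controls average about 0.047.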
In the case of MGESLFKGPRDYNPISSSICHLTNESDGHTTSLYGIGFGPFIITNKHLFRRNNGTLVVQSLHGVFKVKDTTTLQQHLVDGRDMIIIRMPKDFPPFPYKLKFREPQREERICLVTTNFQTKSMSSMVSDTSCTFPSGDGIFWKHWIQTKDGQCGSPLVSTRDGFIVGIHSASNFTNTNNYFTSVPKNFMELLTNQEAQQWVSGWRLNADSVLWGGHKVFMVKPEEPFQPVKEATQL [Q97Y], the “area with substrate ECLYFQS” value stood at 0.0825.
As for MGESLFKGPRDYNPISSSICHLTNESDGHTTSLYGIGFGPFIITNKHLFRRNNGTLVVQSLHGVFKVKDTTTLQQHLVDGRDMIIIRMPKDFPPFPWKLKFREPQREERICLVTTNFQTKSMSSMVSDTSCTFPSGDGIFWKHWIQTKDGQCGSPLVSTRDGFIVGIHSASNFTNTNNYFTSVPKNFMELLTNQEAQQWVSGWRLNADSVLWGGHKVFMVKPEEPFQPVKEATQL [Q97W], the “area with substrate ECLYFQS” value was 0.1, the “area with substrate EELYFQS” value amounted to 0.113, the “area with substrate EKLYFQS” value amounted to 0.142 and the “area with substrate EQLYFQS” value turned out to be 0.107. The “area with substrate ERLYFQS” value was found to be 0.0962.
Consider MGESLFKGPRDYNPISSSICHLTNESDGHTTSLYGIGFGPFIITNKHLFRRNNGTLVVQSLHGVFKVKDTTTLQQHLVDGRDMIIIRMPKDFPPFPLKLKFREPQREERICLVTTNFQTKSMSSMVSDTSCTFPSGDGIFWKHWIQTKDGQCGSPLVSTRDGFIVGIHSASNFTNTNNYFTSVPKNFMELLTNQEAQQWVSGWRLNADSVLWGGHKVFMVKPEEPFQPVKEATQL [Q97L], for which the “area with substrate ECLYFQS” value turned out to be 0.0994, the “area with substrate EILYFQS” value came to 0.0723, the “area with substrate EMLYFQS” value is 0.107 and the “area with substrate EVLYFQS” value was found to be 0.103.
For the variant MGESLFKGPRDYNPISSSICHLTNESDGHTTSLYGIGFGPFIITNKHLFRRNNGTLVVQSLHGVFKVKDTTTLQQHLVDGRDMIIIRMPKDFPPFPDKLKFREPQREERICLVTTNFQTKSMSSMVSDTSCTFPSGDGIFWKHWIQTKDGQCGSPLVSTRDGFIVGIHSASNFTNTNNYFTSVPKNFMELLTNQEAQQWVSGWRLNADSVLWGGHKVFMVKPEEPFQPVKEATQL [Q97D], the “area with substrate ECLYFQS” value stood at 0.0898, the “area with substrate EDLYFQS” value amounted to 0.118, the “area with substrate EKLYFQS” value was 0.111 and the “area with substrate EMLYFQS” value is 0.112. In addition, the “area with substrate EQLYFQS” value amounted to 0.117, the “area with substrate ESLYFQS” value came to 0.0728 and the “area with substrate EWLYFQS” value came out at 0.0929.
For the variant MGESLFKGPRDYNPISSSICHLTNESDGHTTSLYGIGFGPFIITNKHLFRRNNGTLVVQSLHGVFKVKDTTTLQQHLVDGRDMIIIRMPKDFPPFPGKLKFREPQREERICLVTTNFQTKSMSSMVSDTSCTFPSGDGIFWKHWIQTKDGQCGSPLVSTRDGFIVGIHSASNFTNTNNYFTSVPKNFMELLTNQEAQQWVSGWRLNADSVLWGGHKVFMVKPEEPFQPVKEATQL [Q97G], the “area with substrate ECLYFQS” value was determined as 0.109 and the “area with substrate ESLYFQS” value was determined as 0.112.
Turning to MGESLFKGPRDYNPISSSICHLTNESDGHTTSLYGIGFGPFIITNKHLFRRNNGTLVVQSLHGVFKVKDTTTLQQHLVDGRDMIIIRMPKDFPPFPTKLKFREPQREERICLVTTNFQTKSMSSMVSDTSCTFPSGDGIFWKHWIQTKDGQCGSPLVSTRDGFIVGIHSASNFTNTNNYFTSVPKNFMELLTNQEAQQWVSGWRLNADSVLWGGHKVFMVKPEEPFQPVKEATQL [Q97T], the “area with substrate ECLYFQS” value is 0.102, the “area with substrate EGLYFQS” value worked out at 0.091, the “area with substrate EILYFQS” value was determined as 0.102 and the “area with substrate EKLYFQS” value turned out to be 0.105. Moreover, the “area with substrate ELLYFQS” value is 0.0856, the “area with substrate EQLYFQS” value was 0.122, the “area with substrate ESLYFQS” value came out at 0.122 and the “area with substrate EVLYFQS” value was found to be 0.113.
On to MGESLFKGPRDYNPISSSICHLTNESDGHTTSLYGIGFGPFIITNKHLFRRNNGTLVVQSLHGVFKVKDTTTLQQHLVDGRDMIIIRMPKDNPPFPQKLKFREPQREERICLVTTNFQTKSMSSMVSDTSCTFPSGDGIFWKHWIQTKDGQCGSPLVSTRDGFIVGIHSASNFTNTNNYFTSVPKNFMELLTNQEAQQWVSGWRLNADSVLWGGHKVFMVKPEEPFQPVKEATQL [F92N], for which the “area with substrate ECLYFQS” value turned out to be 0.114, the “area with substrate EDLYFQS” value amounted to 0.0605, the “area with substrate EILYFQS” value amounted to 0.0687 and the “area with substrate EPLYFQS” value was found to be 0.112. Moreover, the “area with substrate ERLYFQS” value amounted to 0.0987 and the “area with substrate ESLYFQS” value was determined as 0.0899.
In the case of MGESLFKGPRDYNPISSSICHLTNESDGHTTSLYGIGFGPFIITNKHLFRRNNGTLVVQSLHGVFKVKDTTTLQQHLVDGRDMIIIRMPKDVPPFPQKLKFREPQREERICLVTTNFQTKSMSSMVSDTSCTFPSGDGIFWKHWIQTKDGQCGSPLVSTRDGFIVGIHSASNFTNTNNYFTSVPKNFMELLTNQEAQQWVSGWRLNADSVLWGGHKVFMVKPEEPFQPVKEATQL [F92V], the “area with substrate ECLYFQS” value worked out at 0.0805, the “area with substrate EGLYFQS” value is 0.0953, the “area with substrate EKLYFQS” value amounted to 0.0917 and the “area with substrate ELLYFQS” value came to 0.0585. Moreover, the “area with substrate EMLYFQS” value stood at 0.123, the “area with substrate EPLYFQS” value was 0.117, the “area with substrate EQLYFQS” value amounted to 0.122 and the “area with substrate ERLYFQS” value came out at 0.106. Besides, the “area with substrate ESLYFQS” value is 0.0835.
Consider MGESLFKGPRDYNPISSSICHLTNESDGHTTSLYGIGFGPFIITNKHLFRRNNGTLVVQSLHGVFKVKDTTTLQQHLVDGRDMIIIRMPKDFDPFPQKLKFREPQREERICLVTTNFQTKSMSSMVSDTSCTFPSGDGIFWKHWIQTKDGQCGSPLVSTRDGFIVGIHSASNFTNTNNYFTSVPKNFMELLTNQEAQQWVSGWRLNADSVLWGGHKVFMVKPEEPFQPVKEATQL [P93D], for which the “area with substrate ECLYFQS” value amounted to 0.0923, the “area with substrate EDLYFQS” value worked out at 0.114, the “area with substrate EELYFQS” value was 0.109 and the “area with substrate EFLYFQS” value was 0.103. Moreover, the “area with substrate EGLYFQS” value was found to be 0.0605, the “area with substrate ELLYFQS” value amounted to 0.0654, the “area with substrate EMLYFQS” value stood at 0.13 and the “area with substrate EPLYFQS” value was determined as 0.111. Besides, the “area with substrate ESLYFQS” value turned out to be 0.113 and the “area with substrate EWLYFQS” value worked out at 0.121.
In the case of MGESLFKGPRDYNPISSSICHLTNESDGHTTSLYGIGFGPFIITNKHLFRRNNGTLVVQSLHGVFKVKDTTTLQQHLVDGRDMIIIRMPKDFPPFPQRLKFREPQREERICLVTTNFQTKSMSSMVSDTSCTFPSGDGIFWKHWIQTKDGQCGSPLVSTRDGFIVGIHSASNFTNTNNYFTSVPKNFMELLTNQEAQQWVSGWRLNADSVLWGGHKVFMVKPEEPFQPVKEATQL [K98R], the “area with substrate ECLYFQS” value was 0.0994, the “area with substrate EHLYFQS” value is 0.139, the “area with substrate EILYFQS” value was 0.107 and the “area with substrate EKLYFQS” value amounted to 0.114. For the same variant, the “area with substrate EMLYFQS” value is 0.112, the “area with substrate EPLYFQS” value turned out to be 0.113, the “area with substrate EQLYFQS” value turned out to be 0.0982 and the “area with substrate ERLYFQS” value was determined as 0.101. Besides, the “area with substrate ESLYFQS” value was determined as 0.106, the “area with substrate EVLYFQS” value was 0.0973 and the “area with substrate EWLYFQS” value came out at 0.109.
Take MGESLFKGPRDYNPISSSICHLTNESDGHTTSLYGIGFGPFIITNKHLFRRNNGTLVVQSLHGVFKVKDTTTLQQHLVDGRDMIIIRMPKDFPNFPQKLKFREPQREERICLVTTNFQTKSMSSMVSDTSCTFPSGDGIFWKHWIQTKDGQCGSPLVSTRDGFIVGIHSASNFTNTNNYFTSVPKNFMELLTNQEAQQWVSGWRLNADSVLWGGHKVFMVKPEEPFQPVKEATQL [P94N]: the “area with substrate ECLYFQS” value is 0.0895, the “area with substrate EELYFQS” value turned out to be 0.125, the “area with substrate EKLYFQS” value stood at 0.078 and the “area with substrate EVLYFQS” value was 0.12. Besides, the “area with substrate EWLYFQS” value stood at 0.0914.

Source of the values: the supplement of paper PMC12217912.
